# Data taken from patent publication US20250375530A1 (ALMAC DISCOVERY, published 2025).
# Molecular target: T1, human ROR1-Fc (CHO) (human)
# T1 construct: also called hROR1-Fc; huROR1-Fc
# Test: BLI, hROR1; MMAE conjugate
binder,measurement,value
"BA11-G3CP MA-vc-PAB-MMAE conjugate (Cys linker) (VNAR, not shown: small tags and cut ends, MA-vc-PAB-MMAE on the single cysteine of the linker …, DAR 1.0) TRVDQSPSSLSASVGDRVTITCVLTDTSYPLYSTYWYRKNPGSSNKEQISISGRYSESVNKGTKSFTLTISSLQPEDSATYYCRAMSTNIWTGDGAGTKVEIKPGVQPCPGGGGG[skipping about 120 residues]",Kd,0.54 nM
